According to the RNAGym collection of RNA variant scans (doi:10.1093/nar/gkz1192):
The source gives no read counts; variants with many changes may rest on few reads.

B1: CPEB3 Ribozyme (parent)
chain: UAACAGGGGGCCACAGCAGAAGCGUUCACGUCGCAGCCCCUGUCAGAUUCUGGUGAAUCUGCGAAUUCUGCUGUAUAUCUC

Variants of: B1
Assay: self-cleavage, relative activity (ratio to wild type); higher = more cleavage; in vitro, sequencing
Method in brief: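 CPEB3 self-cleaving ribozyme mutant libraries were made by rounds of error-prone PCR, barcoded, and transcribed in vitro with T7 RNA polymerase for 5 hours at 37°C. Cleavage occurred during transcription and a 15 min DNase I step before EDTA stop. RNAs were reverse transcribed with template switching and Illumina-sequenced, with DNA sequencing mapping barcodes to variants. Relative activity is the variant's cleaved/total read fraction divided by wild type's (minimum 5 reads), averaged across three batches.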
A28U U31C C62U U78A U80C showed a self-cleavage of 0.06. In the case of A28U U31C U41A A45C A47U U78C, the self-cleavage is reported as 0.1. A28U U31C U41C U67C U72C U80C showed a self-cleavage of 0.1. A28U U31C U41G U78A showed a self-cleavage of 0.27. A28U U31C U54G gave a self-cleavage of 0.38. Variant A28U U41A A57U G61C U66C has a self-cleavage of 0.08. A28U U41A U51A A56G showed a self-cleavage of 0.37. For A28U U41A U51G U54C, the self-cleavage was 0.2. A28U U41A U72C gave a self-cleavage of 0.18. With A28U U41C A45G the self-cleavage was 0.28. A28U U41C A45G U72C gave a self-cleavage of 0.64. For A28U U41C A56G U66A, the self-cleavage was 0.24. For A28U U41C G63U, the self-cleavage was 0.93. In the case of A28U U41C U43C A56U U69C, the self-cleavage is reported as 0.07. In the case of A28U U41C U49C, the self-cleavage is reported as 0.24. Variant A28U U41C U54A C62A has a self-cleavage of 0.11. With A28U U41C U60C the self-cleavage was 0.33. Variant A28U U43C A47G has a self-cleavage of 0.31. In the case of A28U U43C A47G U51C A56G U69C, the self-cleavage is reported as 0.03. With A28U U43C U66C C71G U76C the self-cleavage was 0.14. A28U U43G U49A U51C gave a self-cleavage of 0.09. A28U U48C G53A U67C U69A U78C gave a self-cleavage of 0.28. Work on A28U U48C U51C yielded a self-cleavage of 0.43. A28U U48C U76A A77U gave a self-cleavage of 0.18. In the case of A28U U49A U60C, the self-cleavage is reported as 0.31. A28U U49C U51A U60G U69A showed a self-cleavage of 0.12. With A28U U49C U72A the self-cleavage was 0.14. With A28U U49C U80C the self-cleavage was 0.42. With A28U U51C A64U the self-cleavage was 0.19. In the case of A28U U54C U67C, the self-cleavage is reported as 0.15. For A28U U58A U69C, the self-cleavage was 0.15. In the case of A28U U67A U69A U76A, the self-cleavage is reported as 0.19. For A28U U67C U78A, the self-cleavage was 0.45. A28U U72A U80C gave a self-cleavage of 1.18. For A28U U76G U78C, the self-cleavage was 0.4. Work on C29A A35G U60C U72A yielded a self-cleavage of 0.42. Work on C29A A45G A75U yielded a self-cleavage of 0.33. For C29A C38A U41C, the self-cleavage was 0.1. Work on C29A U58C U76C yielded a self-cleavage of 0.18. With C29G A56G A65G the self-cleavage was 0.08. With C29G A56U A75G U80C the self-cleavage was 0.14. In the case of C29G C37G A56G, the self-cleavage is reported as 0.1. Work on C29G C37G C81U yielded a self-cleavage of 0.15. Work on C29G C50U A64U A65U U69C yielded a self-cleavage of 0.13. In the case of C29G C62U U69C, the self-cleavage is reported as 0.09. For C29G U48C A57U A64U U69C U74C U80A, the self-cleavage was 0.05. Work on C29U A35G A45U U51C U69C yielded a self-cleavage of 0.19. C29U A35G A64G U74A gave a self-cleavage of 1.21. For C29U A35G C39U U60C U72A, the self-cleavage was 0. Variant C29U A35G U66C U80A has a self-cleavage of 0.8. With C29U A35U U49C U69A the self-cleavage was 0.14. For C29U A45G A47G U78C, the self-cleavage was 0.18. C29U A45G A65U showed a self-cleavage of 0.24. C29U A45G U80C showed a self-cleavage of 0.57. Variant C29U A45U U49A U72C U76A has a self-cleavage of 0.15. In the case of C29U A45U U51C A64G, the self-cleavage is reported as 0.16. Variant C29U A47G U49C U60C has a self-cleavage of 0.16. Variant C29U A47G U54C has a self-cleavage of 0.41. Work on C29U A64C U72A yielded a self-cleavage of 0.07. With C29U A64G U69C the self-cleavage was 0.29. Work on C29U A65G U69C U72A U80C yielded a self-cleavage of 0.22. Work on C29U A65G U78C yielded a self-cleavage of 0.08. C29U C32A G36U C44U G61A showed a self-cleavage of 0.08. In the case of C29U C34U A56G U60C U72A, the self-cleavage is reported as 0.04. C29U C38A U41A U74A showed a self-cleavage of 0.06. Work on C29U C38U U54A A56G yielded a self-cleavage of 0.13. C29U C39U U51C U69A U76A gave a self-cleavage of 0.08. In the case of C29U C39U U58G A64U, the self-cleavage is reported as 0.08. C29U C44G G53A U80C gave a self-cleavage of 0.23. Work on C29U C68G U80C yielded a self-cleavage of 0.21. In the case of C29U G36C G52U A65U A77G, the self-cleavage is reported as 0.14. C29U U31A A35G G46A A47G gave a self-cleavage of 0.27. Variant C29U U31A A35U U69A has a self-cleavage of 0.16. Work on C29U U31A U43C U51A U60C yielded a self-cleavage of 0.15. For C29U U31C C37A U51C U72C, the self-cleavage was 0.08. C29U U31C G36A U43G C79U showed a self-cleavage of 0.16. C29U U31C U76C gave a self-cleavage of 0.43. C29U U41A A45U C50A U60C A75G gave a self-cleavage of 0.14. C29U U41A A64G U72A U74C U80C gave a self-cleavage of 0.19. In the case of C29U U41C U51A U72C, the self-cleavage is reported as 0.55. Variant C29U U41C U78C has a self-cleavage of 0.48. C29U U43C A45U U69C U72C gave a self-cleavage of 0.1. C29U U43C A56G gave a self-cleavage of 0.09. Work on C29U U43C U51A A56U yielded a self-cleavage of 0.29. C29U U43C U80C showed a self-cleavage of 0.37. C29U U48C U51A U67A showed a self-cleavage of 0.16. Work on C29U U54C C62U U72A U80G yielded a self-cleavage of 0.07. C29U U54C U60C showed a self-cleavage of 0.14. Work on C29U U54C U80C yielded a self-cleavage of 0.85. C29U U58A A65G showed a self-cleavage of 0.12. For C29U U60A A64U U67C, the self-cleavage was 0.21. In the case of C29U U60C U72C, the self-cleavage is reported as 0.22. C29U U67C U74C showed a self-cleavage of 0.17. Work on G30A A35U U48C U69A yielded a self-cleavage of 0.06. Work on G30A A45U U54C U60G U78C yielded a self-cleavage of 0.07. For G30A A47U A77G U80A, the self-cleavage was 0.19. With G30A A56G U67G U72C the self-cleavage was 0.05. G30A C32A A35G U49C U76C gave a self-cleavage of 0.15. Variant G30A C37G A64G has a self-cleavage of 0.42. For G30A C39U U41A, the self-cleavage was 0.53. Variant G30A C40U U48G U80A has a self-cleavage of 0.18. G30A C59A U72A showed a self-cleavage of 0.11. G30A C68U U76A U80C gave a self-cleavage of 0.3. In the case of G30A G33A A45G U60A U66C, the self-cleavage is reported as 0.13. In the case of G30A G33C C39A U48C U74C, the self-cleavage is reported as 0.11. Work on G30A G52U U76C yielded a self-cleavage of 0.21. Work on G30A G63A A65U yielded a self-cleavage of 0.18. With G30A U31C A45G A77G the self-cleavage was 0.06. With G30A U31G G53A the self-cleavage was 0.23. Variant G30A U31G U43C U54C U74C has a self-cleavage of 0.09. G30A U41A A47G gave a self-cleavage of 0.15. With G30A U41C G63U U66C the self-cleavage was 0.22. G30A U41C U43C U60C showed a self-cleavage of 0.1. With G30A U43C A56C U69C the self-cleavage was 0.29. G30A U43G U54C G63U A64G U67C showed a self-cleavage of 0.16. For G30A U48A G61C U72G, the self-cleavage was 0.15. In the case of G30A U49A A57G, the self-cleavage is reported as 0.1. In the case of G30A U49A U72C, the self-cleavage is reported as 0.53. With G30A U49C A77U the self-cleavage was 0.39. Variant G30A U49C U51A A57U U67C U80A has a self-cleavage of 0.07. For G30A U49C U58G A65G, the self-cleavage was 0.06. In the case of G30A U51A A57G, the self-cleavage is reported as 0.11. For G30A U51A U60C, the self-cleavage was 0.42. In the case of G30A U51C U60C, the self-cleavage is reported as 0.41. Work on G30A U72C U80C yielded a self-cleavage of 0.55. G30C A35U U60C showed a self-cleavage of 0.2. G30C A45U U69C gave a self-cleavage of 0.15. G30C A56U U69C showed a self-cleavage of 0.12. For G30C C50A A56G C62U G63U, the self-cleavage was 0.09. G30C G46U A57U G63A A75G gave a self-cleavage of 0.05. G30C U41A U67A showed a self-cleavage of 0.17. Variant G30C U49C A64U has a self-cleavage of 0.1. With G30U A35C U60C U72C the self-cleavage was 0.16. Work on G30U A35G U66C yielded a self-cleavage of 0.42. G30U A57G U60G U74G showed a self-cleavage of 0.13. G30U C32A U69C U72G showed a self-cleavage of 0.06. G30U C37U A45G A64U U78A showed a self-cleavage of 0.04. In the case of G30U C39U A45C A64U, the self-cleavage is reported as 0.07. For G30U C44U A56U U60C U66C A77U, the self-cleavage was 0.05. For G30U G42A A45U U58A A64U, the self-cleavage was 0.12. G30U U41A G70C showed a self-cleavage of 0.14. Variant G30U U41A U49C U69C U78A has a self-cleavage of 0.07. With G30U U43G U48C U60C U74C the self-cleavage was 0.04. In the case of G30U U54A G70C, the self-cleavage is reported as 0.06. U31A A35G U41C A57U gave a self-cleavage of 0.54. In the case of U31A A35G U51A U67C, the self-cleavage is reported as 0.48. For U31A A35G U60A, the self-cleavage was 0.75. For U31A A35G U67C A77G, the self-cleavage was 0.35. With U31A A35U A56U the self-cleavage was 0.13. U31A A35U C40U U41C A65U U78A gave a self-cleavage of 0.13. Variant U31A A35U G70A C79U has a self-cleavage of 0.08. For U31A A35U U54C C62G U67C, the self-cleavage was 0.06. U31A A45C U76C U78C gave a self-cleavage of 0.37. U31A A45G A47G U76C gave a self-cleavage of 0.14. Work on U31A A45G A65U G73A yielded a self-cleavage of 0.13. Work on U31A A45G G63C U69C U76A yielded a self-cleavage of 0.07. U31A A45U A56G gave a self-cleavage of 0.15. U31A A47U A56U showed a self-cleavage of 0.09. U31A A47U A57C U60A A64U gave a self-cleavage of 0.1. With U31A A47U U58C the self-cleavage was 0.07. U31A A56G U78A showed a self-cleavage of 0.49. Work on U31A A57G U66C U78C yielded a self-cleavage of 0.43. With U31A A57G U69A the self-cleavage was 0.26. U31A A57G U78C showed a self-cleavage of 0.41. Work on U31A A64G U69A yielded a self-cleavage of 0.12. With U31A A65G U69A U72A U78C the self-cleavage was 0.09. U31A A65U U74A showed a self-cleavage of 0.2.
